# Data reported in the supplement of paper PMC11369174, “Proteome-scale characterisation of motif-based interactome rewiring by disease mutations” (Molecular Systems Biology, 2024).
# Some of the results follow. Single values of this set are uncertain.
# Columns and labels:
# Assay in all cases: mutation enrichment score (mutant vs wild-type peptide binding to bait); baits are purified protein domains named by gene / domain / UniProt id / residues; peptides come from disordered regions of human proteins; higher = mutation enhances binding relative to wild type
# [1] = biological target: T1, CHD1_tandem-chromo__O14646_268_443; details: number of wild-type / mutant comparisons summed (bounds the score): 5; paper call: no_effect; wild-type window: …
# T1 chain: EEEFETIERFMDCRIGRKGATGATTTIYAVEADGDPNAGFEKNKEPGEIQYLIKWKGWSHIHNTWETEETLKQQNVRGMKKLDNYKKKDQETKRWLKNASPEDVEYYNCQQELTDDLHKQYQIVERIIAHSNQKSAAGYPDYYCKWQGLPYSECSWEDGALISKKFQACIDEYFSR
# [2] = biological target: T2, CLTC_Clathrin-propeller__Q00610_1_364; details: number of wild-type / mutant comparisons summed (bounds the score): 6; paper call: no_effect; wild-type window: …
# T2 chain: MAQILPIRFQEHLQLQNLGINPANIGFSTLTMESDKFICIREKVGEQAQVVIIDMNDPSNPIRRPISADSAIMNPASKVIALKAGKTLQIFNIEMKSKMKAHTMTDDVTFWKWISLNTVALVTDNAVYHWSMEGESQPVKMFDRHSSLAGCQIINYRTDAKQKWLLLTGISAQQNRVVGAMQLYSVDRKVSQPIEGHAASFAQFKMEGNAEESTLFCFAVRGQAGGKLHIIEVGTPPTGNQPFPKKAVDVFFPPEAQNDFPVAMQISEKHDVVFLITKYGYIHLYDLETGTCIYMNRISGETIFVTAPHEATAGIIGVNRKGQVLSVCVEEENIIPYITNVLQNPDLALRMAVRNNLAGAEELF
# [3] = biological target: KPNB1_Heat_1_Q14974_127_876; details: number of wild-type / mutant comparisons summed (bounds the score): 2; paper call: no_effect; wild-type window: …
# [4] = biological target: T3, EPHA3_Pkinase__P29320_606_947; details: number of wild-type / mutant comparisons summed (bounds the score): 6; paper call: no_effect; wild-type window: …
# T3 chain: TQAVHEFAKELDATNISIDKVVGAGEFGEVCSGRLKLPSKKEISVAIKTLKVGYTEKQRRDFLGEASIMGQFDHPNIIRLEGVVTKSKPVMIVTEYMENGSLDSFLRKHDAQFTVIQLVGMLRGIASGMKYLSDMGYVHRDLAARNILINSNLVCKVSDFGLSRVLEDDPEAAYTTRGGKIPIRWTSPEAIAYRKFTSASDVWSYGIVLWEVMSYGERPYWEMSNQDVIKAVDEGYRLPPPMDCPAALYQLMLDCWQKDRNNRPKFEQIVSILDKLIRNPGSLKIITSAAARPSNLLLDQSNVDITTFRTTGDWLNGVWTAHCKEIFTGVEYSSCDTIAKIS
# [5] = biological target: T4, EPHB2_Pkinase__P29323_604_898; details: number of wild-type / mutant comparisons summed (bounds the score): 6; paper call: no_effect; wild-type window: …
# T4 chain: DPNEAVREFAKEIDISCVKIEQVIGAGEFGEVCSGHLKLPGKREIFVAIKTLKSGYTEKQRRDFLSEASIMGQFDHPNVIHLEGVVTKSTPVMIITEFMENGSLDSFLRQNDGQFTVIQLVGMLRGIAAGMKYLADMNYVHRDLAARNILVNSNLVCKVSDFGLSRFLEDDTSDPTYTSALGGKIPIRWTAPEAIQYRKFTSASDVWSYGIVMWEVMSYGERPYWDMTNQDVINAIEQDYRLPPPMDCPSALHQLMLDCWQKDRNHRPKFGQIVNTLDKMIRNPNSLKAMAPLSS
# SNX9_SH3_1_Q9Y5X1_3_61 = details: number of wild-type / mutant comparisons summed (bounds the score): 12; paper call: no_effect; wild-type window: …
# [6] = biological target: WDR5_WD_1234567_P61964_21_334; details: number of wild-type / mutant comparisons summed (bounds the score): 6; paper call: no_effect; wild-type window: …
binder,measurement,setting,value
SWKEIVNLLYELLASLIRGNSSNCALFSTNLDWLVSKLDRL [R533S R533S],mutation enrichment score,[1],3
GTDEEDCPLPEEIRQDLLDFLQDLLAHCGIQLDGEEEEPEE [H2035L H2035L],mutation enrichment score,[2],-6
same,mutation enrichment score,[3],2
EAMVDKLAENAHNVWARDRIQQGWTYGIQQDVKNRRNPRLV [R1013Q R1013Q],mutation enrichment score,[4],2
same,mutation enrichment score,[5],2
VPHRPQERRSSNISQASRSPAMLPVNGKMHSAVDCNGVVSL [P610A P610A],mutation enrichment score,SNX9_SH3_1_Q9Y5X1_3_61,-3
VPHRPQERRSSNISQASRSPTMLPVNGKMHSAVDCNGVVSL [P610T P610T],mutation enrichment score,SNX9_SH3_1_Q9Y5X1_3_61,-3
VLMKTAHGHLVPDRVDKDKEVTKPEFNNHKDYAQEKPSRLK [A1365V A1365V],mutation enrichment score,[6],1
